The whole screen tested about 280,000 compounds, of which about 100 (0.036%) were called active. The inconclusive results got no clear call from the source; some entries with a clear call stand among them for comparison. Calls come from the whole dose curve; as a rule, active = well fitted inhibition curve with a large enough effect in the signal ratio, with a control signal flat (not every such curve was filed as active); inconclusive = small, poorly fitted or top-dose-only effect, or effect the other way, or a change in a side signal; inactive = no such curve, though single readings can be large or run the other way; the % refers to the signal ratio. Potencies of inconclusive entries are doubtful fits and often do not repeat. “Side channel” marks fits to a control or component signal instead of the main read-out.
The compounds below were run against Muscleblind-like protein 1 (Homo sapiens) (UniProt Q9NR56) (assay: qHTS Assay for Inhibitors of MBNL1-poly(CUG) RNA binding). Conditions: TR-FRET MBNL1-His/biotin-(CUG)12 binding, 665/545 ratio; activity change, negative = inhibition: at 57.5 µM (top of the series).
Chain of UniProt Q9NR56 (Q9NR56 whole entry, looked up): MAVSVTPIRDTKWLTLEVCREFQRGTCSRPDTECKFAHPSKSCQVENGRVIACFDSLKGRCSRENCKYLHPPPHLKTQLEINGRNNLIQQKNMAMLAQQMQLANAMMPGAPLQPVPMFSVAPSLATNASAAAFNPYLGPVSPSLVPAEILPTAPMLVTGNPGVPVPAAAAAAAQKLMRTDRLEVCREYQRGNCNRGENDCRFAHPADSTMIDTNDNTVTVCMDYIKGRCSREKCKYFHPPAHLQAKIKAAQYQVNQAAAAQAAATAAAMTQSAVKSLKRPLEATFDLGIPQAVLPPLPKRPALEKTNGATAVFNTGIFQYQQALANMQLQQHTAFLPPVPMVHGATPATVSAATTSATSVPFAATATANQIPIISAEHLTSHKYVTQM
Summary of the method: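 His-tagged MBNL1 binding to biotinylated (CUG)12 RNA was measured by TR-FRET using terbium anti-His antibody (0.055 ng/ul final) and streptavidin-XL665 (5 nM final). Compounds were titrated 92 nM to 58 uM; 60 min at room temperature.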
% is set by controls: 0 for no effect and ±100 for the full control effect; potency is the fitted concentration of half-maximal effect; tags give direction and shape of the fitted curve or compound fluorescence and quenching.

Row | Structure (SMILES) | Potency | activity change, negative = inhibition
1 | CSc1ccc(C(=O)C2CCCN(Cc3cccc4nccnc34)C2)cc1 (stereo not given) | inconclusive: 31.6 µM [quencher, side channel, single point] | –
2 | O=C(Nc1cc(-c2ccccc2)sc1C(=O)O)c1cccc(F)c1 | inconclusive: 39.8 µM [quencher, single point] | –
3 | N#CC1=C(N)Oc2c(oc(CO)cc2=O)C1c1ccsc1 (stereo not given) | inconclusive: 12.6 µM [quencher, side channel, partial curve] | –
4 | COc1ccc(-n2c(N)c(C(=O)NCc3ccco3)c3nc4ccccc4nc32)c(OC)c1 | inconclusive: 15.8 µM [quencher, side channel, partial curve] | –
5 | C=CCn1c(O)c(N=O)c2cc(C)ccc21 | inconclusive: 20 µM [quencher, side channel, partial curve] | –
6 | O=C(C(NS(=O)(=O)c1cccc2nsnc12)c1ccccc1)N1CCN(c2ccccn2)CC1 (stereo not given) | inconclusive: 15.8 µM [quencher, side channel, partial curve] | –
7 | CCOc1cnn(-c2cc(Oc3ccc(C)cc3)ncn2)c(=O)c1Cl | inconclusive: 28.2 µM [quencher, side channel, single point] | –
8 | N#CC(C#N)=C1C=CC=CN1/C(=C\c1ccccc1)C(=O)c1cccs1 | inconclusive: 22.4 µM [activator, partial curve] | –
9 | COc1cccc(-c2ccc(C#N)c(SCC(=O)NCCc3ccc(Cl)cc3)n2)c1 | – | inconclusive: 2.4% [phenotype inactive]
10 | O=C(CSc1nnc2c(n1)[nH]c1ccccc12)NCc1ccco1 | inconclusive: 17.8 µM [quencher, side channel, partial curve] | –
11 | COc1ccc(OCC(O)CNC(=O)/C=C/c2cccc([N+](=O)[O-])c2)cc1 (stereo not given) | inconclusive: 8.91 µM [quencher, side channel, partial curve] | –
12 | COc1ccc(-n2c(CN3CCN(Cc4ccccc4)CC3)nc3ccc([N+](=O)[O-])cc3c2=O)c(OC)c1 | inconclusive: 12.6 µM [quencher, side channel, partial curve] | –
13 | O=C1c2cccc3c(N4CCCCC4)ccc(c23)C(=O)N1CCO | inconclusive: 11.2 µM [quencher, side channel, partial curve] | –
14 | COc1ccc2[nH]c3c(Cl)ncnc3c2c1 | inconclusive: 20 µM [quencher, side channel, partial curve] | –
15 | Cc1cc(C)n(CC(=O)N/N=C/c2ccc([N+](=O)[O-])s2)n1 | inconclusive: 11.2 µM [quencher, side channel, partial curve] | –
16 | CCOc1ccc(C2C(C(=O)/C=C/c3ccco3)=C(O)C(=O)N2CCN2CCOCC2)cc1OC (stereo not given) | inconclusive: 28.2 µM [quencher, partial curve] | –
17 | Cc1ccc(CS(=O)(=O)c2ccc(C(=O)N3CCN(c4ccccn4)CC3)cc2[N+](=O)[O-])cc1 | inconclusive: 28.2 µM [quencher, side channel, partial curve] | –
18 | Clc1ccc(C2=CC(c3ccco3)n3ncnc3N2)cc1 (stereo not given) | inconclusive: 22.4 µM [quencher, side channel, single point] | –

Row | Structure (SMILES) | Potency | activity change, negative = inhibition
19 | CCOC(=O)c1cnn(-c2nc(-c3cccc(F)c3)cs2)c1C(F)(F)F | – | inactive: -9.32%
20 | COc1ccc(N=Cc2c(O)ccc3ccccc23)cc1 | inconclusive: 22.4 µM [quencher, side channel, single point] | –
21 | CCCCn1c(=O)nc2n(-c3ccc(C)cc3)c3ccccc3cc-2c1=O | inconclusive: 7.94 µM [quencher, side channel, full curve] | –
22 | COC(=O)c1ccc(C)c(NC(=S)NCc2ccc(Cl)cc2)c1 | inconclusive: 0.112 µM [fluorescent, side channel, full curve] | –
23 | Cc1cc(C(=O)c2cnc(/N=C/N(C)C)s2)cc(C)c1O | inconclusive: 15.8 µM [quencher, side channel, partial curve] | –
24 | CCOc1cc(N2CCCC2)ccc1[N+](=O)[O-] | inconclusive: 11.2 µM [quencher, side channel, partial curve] | –
25 | COc1ccc(C(=O)OCC(=O)Nc2cccc(C(C)=O)c2)c(OC)c1OC | – | inactive: -3.82%
26 | CSc1nncc(/C(C)=N\Nc2ccccc2)n1 | inconclusive: 11.2 µM [quencher, side channel, partial curve] | –
27 | NNC(=O)c1cccc(COc2ccc(Br)cc2)c1 | inconclusive: 1.26 µM [fluorescent, side channel, single point] | –
28 | CN1CCN(Cc2nc3ccccc3c(=O)n2Cc2nc(-c3ccc([N+](=O)[O-])cc3)cs2)CC1 | inconclusive: 7.94 µM [quencher, side channel, partial curve] | –
29 | CCCn1c(C)cc(/C=C(\C#N)C(=O)OCC(=O)NC(=O)NC(C)(C)C)c1C | inconclusive: 3.98 µM [quencher, side channel, full curve, poor fit] | –
30 | CCc1nc2ccc(C(=O)N3CCN(c4ccc([N+](=O)[O-])cc4)CC3)cc2nc1CC | inconclusive: 14.1 µM [quencher, side channel, partial curve] | –
31 | CCn1cc(/C=C(\NC(=O)c2ccc(OC)c(OC)c2)C(=O)NCCN2CCOCC2)c2ccccc21 | inconclusive: 35.5 µM [quencher, side channel, single point] | –
32 | O=C(NCc1ccccc1)c1cc2ccccc2oc1=O | inconclusive: 7.08 µM [quencher, side channel, partial curve] | –
33 | CCn1cnc2sc(-c3ccccc3)cc2c1=O | inconclusive: 28.2 µM [quencher, partial curve] | –
34 | O=C1CC(c2c(F)cccc2Cl)C2=C(COC2=O)N1 (stereo not given) | inconclusive: 0.1 µM [quencher, side channel, full curve, poor fit] | –
35 | COc1ccc(Nc2nc(-c3sc(C)nc3C)cs2)c(OC)c1 | inconclusive: 31.6 µM [quencher, side channel, single point] | –

Source: PubChem BioAssay AID2675 (National Center for Advancing Translational Sciences (NCATS), 2010)
